# Measured values reported in the supplement of paper PMC8728848.
# The list shows a part of the results.
# B1: HHL-1 (Homo sapiens), P07306 (protein)
# chain: TKEYQDLQHLDNEESDHHQLRKGPPPPQPLLQRLCSGPRLLLLSLGLSLLLLVVVCVIGSQNSQLQEELRGLRETFSNFTASTEAQVKGLSTQGGNVGRKMKSLESQLEKQQKDLSEDHSSLLLHVKQFVSDLRSLSCQMAALQGNGSERTCCPVNWVEHERSCYWFSRSGKAWADADNYCRLEDAHLVVVTSWEEQKFVQHHIGPVNTWMGLHDQNGPWKWVDGTDYETGFKNWRPEQPDDWYGHGLGGGEDCAHFTDDGRWNDDVCQRPYRWVCETELDKASQEPPLL
# How the values were obtained:
# Assay in all cases: glycan array binding signal (z-score within array); higher = stronger binding
# Conditions in all cases: glycan notation: IUPAC condensed, linker removed
# Fuc(a1-2)Gal = molecular target: Fuc(a1-2)Gal
# Summary of the method: (§1)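 Arrays were curated from the Consortium for Functional Glycomics database, 3228 in total, and kept only where the protein sequence was available. Binding is expressed as a within-array Z-score. This score was averaged across arrays of the same protein sequence at different concentrations or buffers and across linkers, and negative values can be read as non-binding.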
# Fuc(a1-2)Gal(b1-3)GalNAc = molecular target: Fuc(a1-2)Gal(b1-3)GalNAc
# Summary of the method: as §1
# [1] = molecular target: Fuc(a1-2)Gal(b1-3)GalNAc(b1-3)Gal
# Summary of the method: as §1
# [2] = molecular target: Fuc(a1-2)Gal(b1-3)GalNAc(b1-3)Gal(a1-4)Gal(b1-4)Glc
# Summary of the method: as §1
# [3] = molecular target: Fuc(a1-2)Gal(b1-3)GalNAc(b1-4)[Neu5Ac(a2-3)]Gal(b1-4)Glc
# Summary of the method: as §1
# Fuc(a1-2)Gal(b1-3)GlcNAc = molecular target: Fuc(a1-2)Gal(b1-3)GlcNAc
# Summary of the method: as §1
# [4] = molecular target: Fuc(a1-2)Gal(b1-3)GlcNAc(b1-2)Man(a1-3)[Fuc(a1-2)Gal(b1-3)GlcNAc(b1-2)Man(a1-6)]Man(b1-4)GlcNAc(b1-4)GlcNAc
# Summary of the method: as §1
# [5] = molecular target: Fuc(a1-2)Gal(b1-3)GlcNAc(b1-3)Gal(b1-4)Glc
# Summary of the method: as §1
# [6] = molecular target: Fuc(a1-2)Gal(b1-3)GlcNAc(b1-3)[Gal(b1-4)[Fuc(a1-3)]GlcNAc(b1-6)]Gal(b1-4)Glc
# Summary of the method: as §1
# [7] = molecular target: Fuc(a1-2)Gal(b1-3)[Fuc(a1-4)]GlcNAc
# Summary of the method: as §1
# [8] = molecular target: Fuc(a1-2)Gal(b1-3)[Fuc(a1-4)]GlcNAc(b1-2)Man(a1-3)[Fuc(a1-2)Gal(b1-3)[Fuc(a1-4)]GlcNAc(b1-2)Man(a1-6)]Man(b1-4)GlcNAc(b1-4)GlcNAc
# Summary of the method: as §1
# Fuc(a1-2)Gal(b1-4)Glc = molecular target: Fuc(a1-2)Gal(b1-4)Glc
# Summary of the method: as §1
# Fuc(a1-2)Gal(b1-4)Glc6S = molecular target: Fuc(a1-2)Gal(b1-4)Glc6S
# Summary of the method: as §1
# Fuc(a1-2)Gal(b1-4)GlcNAc = molecular target: Fuc(a1-2)Gal(b1-4)GlcNAc
# Summary of the method: as §1
# [9] = molecular target: Fuc(a1-2)Gal(b1-4)GlcNAc(b1-2)Man(a1-3)[Fuc(a1-2)Gal(b1-4)GlcNAc(b1-2)Man(a1-6)]Man(b1-4)GlcNAc(b1-4)GlcNAc
# Summary of the method: as §1
# [10] = molecular target: Fuc(a1-2)Gal(b1-4)GlcNAc(b1-3)Gal(b1-4)GlcNAc
# Summary of the method: as §1
# [11] = molecular target: Fuc(a1-2)Gal(b1-4)GlcNAc(b1-3)Gal(b1-4)GlcNAc(b1-3)Gal(b1-4)GlcNAc
# Summary of the method: as §1
# [12] = molecular target: Fuc(a1-2)Gal(b1-4)GlcNAc6S
# Summary of the method: as §1
# [13] = molecular target: Fuc(a1-2)Gal(b1-4)[Fuc(a1-3)]GlcNAc
# Summary of the method: as §1
# [14] = molecular target: Fuc(a1-2)Gal(b1-4)[Fuc(a1-3)]GlcNAc(b1-2)Man(a1-3)[Fuc(a1-2)Gal(b1-4)[Fuc(a1-3)]GlcNAc(b1-2)Man(a1-6)]Man(b1-4)GlcNAc(b1-4)GlcNAc
# Summary of the method: as §1
# [15] = molecular target: Fuc(a1-2)Gal(b1-4)[Fuc(a1-3)]GlcNAc(b1-3)Gal(b1-4)[Fuc(a1-3)]GlcNAc
# Summary of the method: as §1
# [16] = molecular target: Fuc(a1-2)Gal(b1-4)[Fuc(a1-3)]GlcNAc(b1-3)Gal(b1-4)[Fuc(a1-3)]GlcNAc(b1-3)Gal(b1-4)[Fuc(a1-3)]GlcNAc
# Summary of the method: as §1
# Fuc(a1-2)Gal6S(b1-4)Glc = molecular target: Fuc(a1-2)Gal6S(b1-4)Glc
# Summary of the method: as §1
# [17] = molecular target: Fuc(a1-2)Gal6S(b1-4)Glc6S
# Summary of the method: as §1
# [18] = molecular target: Fuc(a1-2)Gal6S(b1-4)GlcNAc
# Summary of the method: as §1
# Fuc(a1-2)[Gal(a1-3)]Gal = molecular target: Fuc(a1-2)[Gal(a1-3)]Gal
# Summary of the method: as §1
# [19] = molecular target: Fuc(a1-2)[Gal(a1-3)]Gal(b1-3)GlcNAc
# Summary of the method: as §1
# [20] = molecular target: Fuc(a1-2)[Gal(a1-3)]Gal(b1-3)GlcNAc(b1-2)Man(a1-3)[Fuc(a1-2)[Gal(a1-3)]Gal(b1-3)GlcNAc(b1-2)Man(a1-6)]Man(b1-4)GlcNAc(b1-4)GlcNAc
# Summary of the method: as §1
# [21] = molecular target: Fuc(a1-2)[Gal(a1-3)]Gal(b1-4)Glc
# Summary of the method: as §1
# [22] = molecular target: Fuc(a1-2)[Gal(a1-3)]Gal(b1-4)GlcNAc
# Summary of the method: as §1
binder,measurement,setting,value
B1,glycan array binding signal (z-score),Fuc(a1-2)Gal,-0.192
same,glycan array binding signal (z-score),Fuc(a1-2)Gal(b1-3)GalNAc,-0.124
same,glycan array binding signal (z-score),[1],1.27
same,glycan array binding signal (z-score),[2],-0.576
same,glycan array binding signal (z-score),[3],0.054
same,glycan array binding signal (z-score),Fuc(a1-2)Gal(b1-3)GlcNAc,-0.371
same,glycan array binding signal (z-score),[4],-0.526
same,glycan array binding signal (z-score),[5],-0.444
same,glycan array binding signal (z-score),[6],0.628
same,glycan array binding signal (z-score),[7],0.785
same,glycan array binding signal (z-score),[8],-0.47
same,glycan array binding signal (z-score),Fuc(a1-2)Gal(b1-4)Glc,-0.517
same,glycan array binding signal (z-score),Fuc(a1-2)Gal(b1-4)Glc6S,0.24
same,glycan array binding signal (z-score),Fuc(a1-2)Gal(b1-4)GlcNAc,-0.433
same,glycan array binding signal (z-score),[9],-0.533
same,glycan array binding signal (z-score),[10],-0.281
same,glycan array binding signal (z-score),[11],-0.319
same,glycan array binding signal (z-score),[12],-0.56
same,glycan array binding signal (z-score),[13],-0.054
same,glycan array binding signal (z-score),[14],0.169
same,glycan array binding signal (z-score),[15],-0.55
same,glycan array binding signal (z-score),[16],0.511
same,glycan array binding signal (z-score),Fuc(a1-2)Gal6S(b1-4)Glc,1.57
same,glycan array binding signal (z-score),[17],0.786
same,glycan array binding signal (z-score),[18],0.321
same,glycan array binding signal (z-score),Fuc(a1-2)[Gal(a1-3)]Gal,-0.251
same,glycan array binding signal (z-score),[19],-0.506
same,glycan array binding signal (z-score),[20],-0.472
same,glycan array binding signal (z-score),[21],-0.484
same,glycan array binding signal (z-score),[22],-0.546
